# Whole data set: some 16,000 sequences, median “Z-score” near -0.37, cut for the highest 2% near 3.2. The list shows a part of the results.
# Tested on: RBM10 RRM1-ZnF (GST-tagged construct)
# Assay: RNAcompete 7-mer binding Z-score; higher = stronger binding preference
# Summary of the method: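 A one-sided Z-score for enrichment, taken across the probes containing each heptamer motif, was assigned to every such motif. The RNA came from a designed pool of 241 399 sequences up to 41 nt (1.5 nmol), bound by 20 pmol of GST-tagged RBM10 constructs in 1 ml Hepes pH 7.8 buffer with glutathione Sepharose beads for 30 min at 4°C. Four 2-min washes at 4°C preceded identification of bound RNA by microarray hybridisation.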
row,Sequence,RNAcompete 7-mer binding Z-score
1,AGGAGAU,1.41
2,CAGCAAC,-0.539
3,CCCAUUC,-0.844
4,AUCGGUG,0.894
5,CCCGAUG,-0.383
6,GAGGUCU,0.0203
7,GAGUCGC,-0.155
8,UCAAGAU,-0.438
9,AGACGUC,-0.724
10,ACGUGCC,-0.542
11,UACCCCG,-0.49
12,GGUAUAC,0.599
13,UGAUCUA,-0.672
14,AUAAUAA,-0.454
15,UAAGCGG,0.833
16,UUUUUAA,-0.652
17,UGCGGGU,2.92
18,UUAAAGA,-0.168
19,GGUCAAA,-0.145
20,UACCGCA,-0.649
21,AUCAUCU,-1
22,CGGAACG,0.576
23,CAUGUCA,-0.5
24,GUGCCAC,-0.0317
25,ACGUACC,-0.578

row,Sequence,RNAcompete 7-mer binding Z-score
1,AUCUGGU,-0.113
2,GUACCAA,-0.353
3,AGGAAGG,4.31
4,CUUUAGC,-0.941
5,CGGUGUU,0.0528
6,ACCGACC,-0.824
7,UGCUUUA,-0.789
8,UGAUGGU,1.87
9,AUAACUU,-0.649
10,CCUUAGG,-0.422
11,AUGCGCU,-0.532
12,AUCCGUA,-0.733
13,GCAUUCC,-0.668
14,GGAUGCG,2.58
15,GUUUUUC,-0.62
16,CGGAAGU,0.79
17,CAACGCC,-0.691
18,UUUAUCC,-0.815
19,ACGUGAG,0.621
20,CUACACG,-0.571
21,CUAAGGC,-0.266
22,GAACUCC,-0.678
23,GUGGGGC,3.52
24,CUUCUCC,-0.789
25,CGCAUUC,-0.639

row,Sequence,RNAcompete 7-mer binding Z-score
1,AAAGGCA,0.94
2,GGGCACA,1.24
3,AAUCCAG,-0.435
4,AGGGCAC,0.933
5,CCGCUCC,-0.474
6,CUGUCAU,-0.6
7,UUGUGAG,0.342
8,GUGACGC,0.439
9,GUCGAGU,0.0365
10,CAUACUG,-0.503
11,GUGUCCA,-0.457
12,CCCACCU,-0.386
13,CCAGGAC,0.0495
14,GGCUACU,-0.275
15,UAUUCAA,-0.756
16,CCGACAA,-0.737
17,UUCUAGC,-0.779
18,CAUGACG,-0.409
19,GGGCUAA,1.34
20,GACGAGG,2.45
21,CCAUCAA,-0.785
22,GACGAGA,0.644
23,ACCCAGU,-0.655
24,GGCUGAU,0.443
25,UAUGCGU,-0.246

row,Sequence,RNAcompete 7-mer binding Z-score
1,GCCAUUG,-0.578
2,CUCGGGG,1.35
3,GUCACUA,-0.243
4,AGACCGC,-1.03
5,GAAAUAG,0.794
6,AAAUGAA,-0.139
7,ACCCGCG,-0.259
8,GUGACCA,-0.103
9,AGUACCG,-0.262
10,AUUCUCC,-0.681
11,CCAGAAC,-0.672
12,GUAGUCA,0.157
13,GAUUGUG,0.81
14,ACGACUU,-0.668
15,CAGUUUC,-0.795
16,UUUCGGG,0.667
17,ACACUAU,-0.5
18,ACGGCAC,0.137
19,ACUACUU,-0.659
20,CUCAGAC,-0.662
21,AGCGGUU,1.11
22,AGCAGGA,2.3
23,UGGGGCC,0.868
24,AGACAUC,-0.633
25,UUACCAA,-0.766

row,Sequence,RNAcompete 7-mer binding Z-score
1,GAAGGAC,2.33
2,UGAUAGC,0.0138
3,AUAUAAG,0.147
4,GGUCUAU,-0.298
5,UGAAAUG,0.836
6,GAUGUGC,0.56
7,CGCCUAU,-0.727
8,AACACUG,-0.253
9,GUCUGCU,-0.578
10,AUCCCUU,-0.772
11,ACCGCGC,-0.425
12,GAUUGAA,0.205
13,CAUCCAU,-0.821
14,UCAAGAA,-0.5
15,UGGAGGA,2.87
16,AUCUAGU,-0.613
17,UAUACGC,-0.805
18,CGCUCAC,-0.617
19,CCGUCAG,-0.607
20,GAUCAAG,0.0203
21,AGGCGAC,0.189
22,GCGCUAU,-0.467
23,UAUUCGG,-0.155
24,GGAUCUG,0.244
25,GGACUAC,0.163

row,Sequence,RNAcompete 7-mer binding Z-score
1,GAAUGGC,1.27
2,GUGGCGU,1.19
3,CAUAUCC,-0.789
4,CUCGUCC,-0.639
5,AUGAAAU,-0.292
6,GCAAUGA,0.0268
7,AUCGAAG,0.183
8,GAUUCGC,-0.5
9,GGACAGU,0.842
10,GCGGAUA,2.18
11,GUGCAGC,0.436
12,UUCACGC,-0.74
13,GUAUAUA,-0.0414
14,CAACCUG,-0.652
15,AGUAAUU,-0.467
16,UCGUAGC,-0.48
17,CAGUACC,-0.633
18,GCUUAGC,-0.483
19,GAUGCCC,-0.418
20,CCGAACC,-0.779
21,GCGGGGG,3.94
22,GAUUCUU,-0.678
23,CGCUAAA,-0.711
24,CAUAAUU,-0.86
25,UGAGAUU,-0.0155

row,Sequence,RNAcompete 7-mer binding Z-score
1,AACUGAC,-0.526
2,CACGGGA,1.5
3,AAACAAU,-0.373
4,UUCUGAG,-0.461
5,CGUUACC,-0.6
6,UAACUUU,-0.889
7,CAAACCA,-0.659
8,AAACCAG,-0.324
9,UUACGAC,-0.668
10,GUUUAGG,1.32
11,UGACCAU,-0.691
12,UCACACA,-0.568
13,GGCUGAC,0.173
14,UAUGUUA,-0.383
15,UCAAUUG,-0.448
16,CACCGUG,-0.298
17,CGUACAU,-0.373
18,CCGUUGG,0.342
19,UCCACUG,-0.529
20,UUCCUGA,-0.763
21,ACAUUGG,0.553
22,CAGCGAU,-0.262
23,AUUCUUA,-0.72
24,UCCAGCU,-0.945
25,ACGAGCU,-0.37

row,Sequence,RNAcompete 7-mer binding Z-score
1,GGACAUA,0.761
2,UGGGGGC,3.07
3,UUAGAAC,-0.448
4,UCACUGA,-0.493
5,AUUCAUC,-0.766
6,GCAUAAC,-0.301
7,AUUCCCA,-0.756
8,GGGUGCG,2.96
9,AAAACGU,-0.201
10,GUCAGAG,0.313
11,AGUGGGG,4.49
12,AUCCACA,-0.75
13,UGGCCUC,-0.496
14,GGGUUCA,1.17
15,AAACUCG,-0.737
16,AUCGGCU,-0.659
17,UUCGCGG,-0.116
18,GGCGGAG,2.4
19,GAACGUA,0.115
20,AGAAAAC,-0.298
21,UCUUAAA,-0.805
22,UCUUUGG,-0.327
23,CUUGUUC,-0.899
24,AGACCUA,-0.87
25,UUUUUAU,-0.808

row,Sequence,RNAcompete 7-mer binding Z-score
1,GCCGGAC,-0.327
2,UUCGUGU,-0.483
3,AUUCCUC,-0.707
4,AGAUUUA,-0.305
5,GGCCUAU,-0.565
6,AGCCGAA,-0.798
7,GAGACAU,0.186
8,ACCGCAU,-0.759
9,UAAGAUA,-0.168
10,CUGUGUA,-0.285
11,CCGUCUU,-1
12,UUGGCGC,0.0788
13,UAGAUUU,-0.652
14,UACGUGC,-0.331
15,AGCCUUC,-0.698
16,CUGAGCU,-0.431
17,UCACUAA,-0.642
18,GCCUCAU,-0.938
19,GUCAAGU,-0.00246
20,GUGGUUG,2.75
21,GGAUUUU,0.043
22,GCGAACC,-0.366
23,UAUUUGU,-0.542
24,AACGCUG,-0.5
25,GGCGCAA,0.309

row,Sequence,RNAcompete 7-mer binding Z-score
1,AUUUGCG,-0.675
2,CUGAUCC,-0.763
3,CGUUGCC,-0.6
4,UGCAUCG,-0.396
5,CAACUUA,-0.727
6,GGCAACA,0.313
7,CAUGGCA,-0.0707
8,CAAUAGG,0.703
9,ACCCGAC,-0.746
10,CAUGGUG,1.35
11,GCCUUAC,-0.789
12,CUGAUAU,-0.61
13,UGAGUCU,-0.308
14,GGGUAGU,3.11
15,CUUCGCG,-0.714
16,GCUCGCA,-0.379
17,ACGUCCG,-0.626
18,GAUGUAG,1.51
19,UACCUCC,-0.662
20,AUAAGAG,0.254
21,CAUUGGG,0.8
22,CCAAUUG,-0.5
23,ACCAUGA,-0.675
24,UAUAGUC,-0.503
25,CUGCGCG,-0.262

row,Sequence,RNAcompete 7-mer binding Z-score
1,AACCCUA,-0.844
2,GAACCCG,-0.704
3,CAGGCCU,-0.662
4,AUUGGGC,1.49
5,GUCGGGU,1.64
6,ACGCUAA,-0.578
7,ACCCAAG,-0.613
8,GUGCCGG,0.56
9,CAUGUUG,-0.526
10,GUUUGCU,-0.347
11,GUUGACA,0.215
12,CUUUACU,-0.746
13,CGAUAGG,1.23
14,UUGCGUC,-0.584
15,UUAAGAA,-0.301
16,UUCAAUU,-0.727
17,CAGUAAA,-0.366
18,UGUUGGG,2.52
19,UGGCAAC,0.176
20,ACUGGUA,0.358
21,GCGGACA,0.803
22,AGUUAAA,-0.0804
23,CUAGUGA,-0.217
24,GGCCCUA,-0.571
25,GGUGCUG,2.12

row,Sequence,RNAcompete 7-mer binding Z-score
1,CGUCUUG,-0.691
2,GCCGUAC,-0.707
3,GUAUCCG,-0.5
4,CUCUAUG,-0.769
5,ACUCCAA,-0.714
6,CCAUAGA,-0.617
7,AGUGCCU,-0.591
8,UAGGCAA,0.553
9,UUAUGGA,1
10,CAAAUUC,-0.893
11,UAAGUCU,-0.633
12,CGGGGGG,3.06
13,GGCCUCG,-0.0479
14,AACGCAC,-0.75
15,UGGACAU,0.651
16,UCGUCUU,-0.678
17,CGUCGUA,-0.243
18,UAGCCUA,-0.798
19,AAUACCU,-0.711
20,AUGCGCA,-0.194
21,UAUAGGU,0.683
22,CGGCAUA,-0.21
23,AGUCGCA,-0.321
24,AGCAUCA,-0.262
25,GUAAUCA,0.017

row,Sequence,RNAcompete 7-mer binding Z-score
1,CAAACGG,0.527
2,UGAGGCU,0.3
3,GACCAAU,-0.639
4,ACCUUAC,-1
5,GUCCCGA,-0.522
6,AUUGUCA,-0.441
7,UUAUCUU,-0.873
8,UCAGAUU,-0.636
9,UAACGCA,-0.5
10,UUAGUGU,-0.0772
11,CUGGGGU,2.18
12,UAGAAGC,-0.0447
13,CACUUCU,-0.815
14,CAGCCAA,-0.493
15,ACCACAC,-0.402
16,AUGGGAG,3.64
17,GUCGUUG,0.0918
18,UCUGUCU,-0.756
19,GGCCGUC,-0.441
20,UAAAGGU,1.42
21,AGUGCGG,1.41
22,AGGGACA,2.02
23,AACAGGU,1.49
24,UCCUAAC,-0.86
25,CCCCCCG,0.0365

row,Sequence,RNAcompete 7-mer binding Z-score
1,AGGUCAA,0.274
2,UUUGACU,-0.714
3,GCAGGAG,2.47
4,CUAGAGG,0.319
5,UUCCGAC,-0.789
6,CGGGCUG,0.573
7,GGCGUAA,0.901
8,AGUAAAA,-0.184
9,AGGCUCA,-0.292
10,GGUUAUA,0.764
11,GUAUCUC,-0.594
12,AACAAGG,2.03
13,CAUCCCA,-0.548
14,UUGAGAU,-0.223
15,GUAGGUU,1.61
16,AGCAACA,-0.158
17,CAACGAC,-0.457
18,GGUCAGU,0.566
19,GCCACCA,-0.363
20,ACAUGUA,-0.123
21,UCUCGAG,-0.448
22,CCCUGUU,-0.802
23,UCACAUC,-0.685
24,GUCAGCG,0.283
25,AAACGAA,-0.249

row,Sequence,RNAcompete 7-mer binding Z-score
1,GAUGCAA,0.257
2,UCAGUUU,-0.672
3,CCAGGAU,0.404
4,GGUAGAA,2.63
5,UCCAACG,-0.477
6,GUUAAAU,-0.0804
7,CGAACAA,-0.262
8,UUGAGGU,1.63
9,UCGGUGU,0.524
10,AGGUUAC,0.485
11,UAUCCAU,-0.659
12,GCCCUAA,-0.737
13,UGCUUUU,-0.902
14,CAGAUGG,1.41
15,CCAGGGC,0.93
16,GUCCGGU,0.082
17,UCACCAC,-0.428
